The supplement of paper PMC12217912
The other results are listed elsewhere or left out. The full chains were built here from the parent and the listed change. Values near 0.05 are background.

B1: TEV protease; numbered along this chain (parent)
chain: MGESLFKGPRDYNPISSSICHLTNESDGHTTSLYGIGFGPFIITNKHLFRRNNGTLVVQSLHGVFKVKDTTTLQQHLVDGRDMIIIRMPKDFPPFPQKLKFREPQREERICLVTTNFQTKSMSSMVSDTSCTFPSGDGIFWKHWIQTKDGQCGSPLVSTRDGFIVGIHSASNFTNTNNYFTSVPKNFMELLTNQEAQQWVSGWRLNADSVLWGGHKVFMVKPEEPFQPVKEATQL

Variants of: B1
Experiment: raw area under fraction-flipped curve 0-4 h after induction (AUC4h, not background-subtracted), DNA-recorder readout of cleavage of the substrate (dimensionless); higher = more cleavage of the substrate by the protease variant
Conditions: temperature: 34 °C; time window: 0-4 h after rhamnose induction
Description: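 In vivo DNA recorder in E. coli TOP10(DE3) ΔrhaA at 34 °C. Each TEVp single-site mutant (parent TEVp 0) is paired with a single-site variant of the 7-mer TEVs (canonical ENLYFQ|S). The substrate sits between flexible linkers in a Bxb1-sfGFP-TEVs-SsrA fusion, so cleavage stabilises Bxb1 and speeds flipping of a recombination array, read by NGS. The value is the raw area under the fraction-flipped curve over 0-4 h after rhamnose induction (AUC4h), with ≥20 reads per time point. It is not background-subtracted; inactive controls average about 0.047.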
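Further: Bxb1 expression induced with 0.2% (w/v) L-rhamnose at OD600 near 0.5, cultures sampled hourly, flipped fraction per protease–substrate barcode pair counted by paired-end Illumina sequencing.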

| Variant | area with substrate ENLAFQS | area with substrate ENLCFQS | area with substrate ENLDFQS | area with substrate ENLEFQS | area with substrate ENLFFQS | area with substrate ENLGFQS | area with substrate ENLHFQS | area with substrate ENLIFQS | area with substrate ENLMFQS | area with substrate ENLPFQS | area with substrate ENLQFQS | area with substrate ENLSFQS | area with substrate ENLWFQS | area with substrate ENLKFQS | area with substrate ENLLFQS | area with substrate ENLNFQS | area with substrate ENLRFQS | area with substrate ENLTFQS | area with substrate ENLVFQS |
| --- | --- | --- | --- | --- | --- | --- | --- | --- | --- | --- | --- | --- | --- | --- | --- | --- | --- | --- | --- |
| S121K | 0.0806 | 0.0793 | 0.0519 | 0.0679 | 0.032 | 0.0649 | 0.0716 | 0.117 | 0.0729 | 0.0307 | 0.0882 | 0.0723 | 0.0646 | – | – | – | – | – | – |
| S121I | 0.0636 | – | 0.0616 | – | 0.112 | – | 0.0466 | 0.0892 | 0.0614 | 0.0633 | 0.0593 | 0.0623 | – | 0.0697 | 0.0639 | 0.0731 | 0.0607 | – | – |
| H76W | 0.0619 | 0.0644 | 0.0489 | 0.0618 | – | 0.0756 | – | 0.0997 | 0.0858 | 0.0629 | – | – | – | – | 0.0807 | 0.067 | 0.0512 | – | – |
| H76L | 0.0666 | – | 0.0617 | 0.069 | 0.081 | 0.061 | – | – | – | 0.0585 | 0.0833 | 0.0656 | – | 0.0741 | – | 0.039 | – | 0.0654 | 0.0762 |
| T115Y | 0.0774 | – | 0.0628 | – | 0.0864 | – | – | – | 0.0559 | 0.0569 | 0.0711 | 0.0549 | 0.0573 | – | – | 0.0873 | 0.0571 | – | – |
| E103T | 0.0767 | 0.0554 | 0.0609 | – | 0.0681 | – | 0.0637 | – | 0.0801 | 0.0601 | – | – | – | 0.0746 | – | 0.0661 | 0.0885 | – | – |
| T70R | 0.0693 | – | 0.0653 | – | – | – | – | – | – | 0.0537 | – | 0.0681 | 0.0658 | 0.0591 | – | 0.0625 | 0.0563 | – | 0.0589 |
| D79T | 0.0559 | 0.0736 | 0.0742 | 0.0365 | 0.0839 | – | – | 0.0764 | – | 0.0566 | 0.0551 | 0.0639 | 0.0821 | – | – | 0.0469 | – | – | – |
| D79S | 0.0404 | – | 0.0679 | 0.0537 | 0.0808 | 0.0573 | 0.0635 | 0.0754 | 0.0777 | 0.0653 | 0.0744 | 0.0655 | 0.0601 | 0.078 | – | 0.0687 | – | – | 0.0906 |
| D79M | 0.065 | – | 0.0687 | – | 0.0761 | – | 0.0711 | 0.0557 | 0.0831 | 0.0457 | 0.0724 | 0.0609 | – | – | 0.067 | 0.0617 | 0.0587 | 0.0605 | – |
| D79W | 0.0543 | 0.0506 | 0.0623 | – | 0.0504 | – | 0.0745 | 0.0802 | – | 0.0375 | 0.085 | – | 0.0584 | 0.0649 | 0.0549 | 0.0774 | 0.0742 | 0.0991 | 0.0773 |
| Q97H | 0.0574 | – | 0.0461 | 0.0499 | 0.0752 | – | – | 0.0816 | – | – | – | 0.0521 | 0.0663 | 0.069 | – | 0.0524 | – | – | – |
| Q97A | 0.0558 | – | 0.0579 | – | 0.0667 | – | 0.0862 | – | – | – | – | 0.0651 | 0.0678 | 0.0859 | – | – | 0.092 | – | – |
| M122V | 0.054 | – | 0.0592 | 0.0735 | 0.0914 | 0.0716 | 0.0733 | 0.0835 | 0.0619 | 0.05 | 0.0598 | – | – | 0.0817 | – | 0.0676 | – | – | 0.0808 |
| S130V | 0.0632 | 0.0608 | 0.0814 | 0.0688 | 0.129 | 0.0751 | 0.0663 | 0.092 | – | 0.0643 | – | 0.0753 | 0.0332 | 0.0849 | – | 0.064 | 0.0743 | – | – |
| P89Y | 0.0472 | – | 0.045 | 0.0526 | 0.0536 | – | 0.0525 | – | – | 0.0417 | – | 0.0617 | – | 0.0575 | – | 0.0575 | – | – | 0.0923 |
| R102M | 0.0827 | 0.0609 | 0.052 | 0.0597 | – | – | – | – | 0.0663 | 0.0599 | 0.0477 | 0.0633 | 0.0569 | 0.0562 | 0.0615 | – | – | – | – |
| T114R | 0.0651 | – | 0.0739 | – | 0.114 | 0.0781 | 0.069 | 0.0037 | – | 0.0416 | 0.0764 | 0.0601 | – | 0.0797 | 0.089 | 0.0502 | 0.0791 | – | – |
| L99R | 0.0575 | 0.0791 | 0.133 | 0.0642 | 0.082 | – | 0.0674 | 0.0787 | – | – | 0.0764 | 0.0537 | 0.077 | 0.104 | 0.053 | 0.0667 | 0.0795 | – | – |
| L99Q | 0.0565 | 0.0597 | 0.0578 | – | – | – | 0.0602 | – | – | 0.0634 | – | – | – | 0.0771 | – | 0.0877 | – | – | – |
| P94T | 0.0526 | 0.0547 | 0.0636 | 0.0642 | 0.0871 | 0.0584 | 0.06 | – | – | – | 0.0854 | – | – | – | – | 0.0676 | 0.0732 | – | – |
| Q105I | 0.0673 | 0.107 | 0.0634 | 0.0571 | 0.0581 | – | – | – | – | – | – | 0.0653 | – | 0.053 | 0.0688 | 0.0804 | – | – | 0.0844 |
| T132C | 0.0691 | 0.0766 | 0.0887 | 0.094 | 0.0828 | 0.0544 | 0.0934 | 0.0717 | 0.063 | – | 0.0637 | – | 0.0749 | 0.0728 | 0.0581 | 0.0781 | 0.0817 | – | 0.0729 |
| T71V | 0.0684 | – | 0.0613 | 0.0754 | 0.108 | – | 0.0757 | – | – | 0.0551 | – | 0.0609 | 0.0687 | 0.0706 | 0.0686 | 0.0467 | 0.084 | 0.0617 | – |
| Q146P | 0.047 | 0.0814 | 0.0728 | 0.0355 | 0.0854 | 0.0643 | 0.0748 | 0.0831 | – | 0.0782 | 0.0837 | 0.0625 | – | 0.0945 | – | 0.0815 | – | – | – |
| D82L | 0.048 | 0.02 | 0.0474 | 0.0577 | 0.0612 | – | 0.0553 | – | – | – | 0.0574 | 0.0493 | – | 0.0812 | 0.0453 | 0.0601 | – | – | 0.054 |
| F95H | 0.0715 | 0.0967 | 0.0565 | 0.064 | – | – | 0.064 | 0.0643 | 0.0643 | – | – | 0.0501 | – | 0.0621 | 0.0678 | 0.0591 | – | – | 0.0581 |
| F95A | 0.0476 | 0.0691 | 0.05 | 0.0586 | 0.084 | – | – | – | – | – | 0.0511 | 0.0482 | 0.0947 | 0.0746 | 0.0487 | 0.131 | 0.0824 | – | 0.055 |
| C111H | 0.0587 | 0.0654 | – | – | 0.086 | – | – | 0.0839 | – | – | – | 0.0823 | 0.0697 | 0.0745 | – | 0.0687 | – | – | 0.0862 |
